These are yes or no findings as the source states them, for the method shown. Binding seen in cells or lysates may run through a third protein. Some binding calls cover weakened binding; strength is not graded here.
What was measured:
[1] = molecular target: T1, ETS-related gene (ERG) (human (endogenous in HUVEC and HSEC)) (UniProt P11308); assay: proximity ligation; Duolink PLA on fixed HUVEC (4% paraformaldehyde) after 30 min TGFβ2 treatment; signal in the nucleus
T1 sequence: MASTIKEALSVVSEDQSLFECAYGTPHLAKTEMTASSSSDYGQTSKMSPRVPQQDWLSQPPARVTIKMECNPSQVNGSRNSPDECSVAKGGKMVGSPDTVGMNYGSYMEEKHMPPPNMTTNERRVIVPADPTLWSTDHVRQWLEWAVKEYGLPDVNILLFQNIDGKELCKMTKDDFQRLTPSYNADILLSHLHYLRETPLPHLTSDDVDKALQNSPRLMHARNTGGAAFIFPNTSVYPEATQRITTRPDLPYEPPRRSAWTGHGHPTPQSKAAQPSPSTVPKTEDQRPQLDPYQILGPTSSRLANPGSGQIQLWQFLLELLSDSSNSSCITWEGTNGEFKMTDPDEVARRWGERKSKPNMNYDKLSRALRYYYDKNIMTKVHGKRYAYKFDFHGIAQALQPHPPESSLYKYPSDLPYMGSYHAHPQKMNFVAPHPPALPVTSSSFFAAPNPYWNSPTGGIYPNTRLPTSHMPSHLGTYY

Amino acid sequences for entries named in this document (tags omitted).
UniProt Q15797: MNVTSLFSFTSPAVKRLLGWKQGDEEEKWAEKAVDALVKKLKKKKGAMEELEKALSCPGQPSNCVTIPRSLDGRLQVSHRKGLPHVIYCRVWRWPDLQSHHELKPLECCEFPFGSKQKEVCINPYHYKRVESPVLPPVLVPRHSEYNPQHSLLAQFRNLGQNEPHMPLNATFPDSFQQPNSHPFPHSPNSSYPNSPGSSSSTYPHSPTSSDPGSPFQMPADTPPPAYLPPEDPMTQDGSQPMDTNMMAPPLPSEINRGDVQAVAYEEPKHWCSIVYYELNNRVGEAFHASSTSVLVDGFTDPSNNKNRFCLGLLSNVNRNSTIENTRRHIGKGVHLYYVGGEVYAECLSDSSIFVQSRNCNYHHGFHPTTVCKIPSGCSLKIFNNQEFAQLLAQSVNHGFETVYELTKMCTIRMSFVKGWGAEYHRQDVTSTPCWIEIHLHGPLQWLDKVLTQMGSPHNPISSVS
UniProt Q15796: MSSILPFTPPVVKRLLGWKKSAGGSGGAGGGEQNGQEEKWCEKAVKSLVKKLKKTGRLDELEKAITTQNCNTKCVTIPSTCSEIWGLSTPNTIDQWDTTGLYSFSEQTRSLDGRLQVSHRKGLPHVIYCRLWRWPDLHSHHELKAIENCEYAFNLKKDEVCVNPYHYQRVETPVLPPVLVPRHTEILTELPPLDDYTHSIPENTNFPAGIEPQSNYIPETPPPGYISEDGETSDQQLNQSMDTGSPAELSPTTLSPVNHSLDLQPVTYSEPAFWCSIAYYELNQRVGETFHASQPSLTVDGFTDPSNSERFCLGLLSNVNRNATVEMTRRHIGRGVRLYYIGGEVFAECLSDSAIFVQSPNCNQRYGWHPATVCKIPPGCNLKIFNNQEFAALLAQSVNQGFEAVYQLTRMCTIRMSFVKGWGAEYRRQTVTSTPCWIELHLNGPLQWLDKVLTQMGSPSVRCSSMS
UniProt P84022: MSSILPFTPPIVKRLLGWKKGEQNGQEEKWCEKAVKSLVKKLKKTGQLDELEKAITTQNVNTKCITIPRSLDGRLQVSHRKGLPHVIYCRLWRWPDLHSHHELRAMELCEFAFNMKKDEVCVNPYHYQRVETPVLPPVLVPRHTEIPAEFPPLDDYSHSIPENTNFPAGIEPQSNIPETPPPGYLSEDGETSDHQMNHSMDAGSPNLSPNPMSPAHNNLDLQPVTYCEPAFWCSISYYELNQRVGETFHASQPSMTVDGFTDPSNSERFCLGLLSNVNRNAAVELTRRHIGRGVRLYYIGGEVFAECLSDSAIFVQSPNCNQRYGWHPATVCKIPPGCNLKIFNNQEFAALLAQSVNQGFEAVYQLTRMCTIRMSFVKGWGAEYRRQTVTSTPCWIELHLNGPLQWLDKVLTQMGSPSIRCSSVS

[2] = molecular target: T1, ETS-related gene (ERG) (human (endogenous in HUVEC and HSEC)); assay: co-IP; HUVEC whole cell lysate (1 mg) immunoprecipitated with mouse anti-ERG or mouse IgG and Protein A/G agarose overnight at 4 °C, blotted for SMADs; cells treated with PBS or TGFβ2 (10 ng/ml, 30 min) after 4 h serum starvation; some lysates treated with Benzonase (500 units, 1 h); lysis buffer 50 mM Tris pH 7.5, 150 mM NaCl, 0.1% Igepal, 1 mM EDTA, 0.25% sodium deoxycholate
[3] = molecular target: T1, ETS-related gene (ERG) (human (endogenous in HUVEC and HSEC)); assay: co-IP; lysate of HSEC (hepatic sinusoidal endothelial cells from transplant patients), untreated, immunoprecipitated with anti-ERG, blotted for SMADs
[4] = molecular target: T1, ETS-related gene (ERG) (human (endogenous in HUVEC and HSEC)); assay: condition: only cells pretreated with SB-431542 (10 μM, 1 h); co-IP; HUVEC pretreated with SB-431542 (1 h) before TGFβ2; whole cell lysate immunoprecipitated with mouse anti-ERG, blotted for SMAD3
[5] = molecular target: T1, ETS-related gene (ERG) (human (endogenous in HUVEC and HSEC)); assay: proximity ligation; PLA on HSEC, TGFβ2 treatment (Supplementary Fig. 4D)

Row | binding [1] | binding [2] | binding [3] | binding [4] | binding [5] | Substance
1 | no binding | no binding | no binding | – | – | SMAD1 (from UniProt Q15797 1-465)
2 | – | binds | – | – | – | SMAD2 (from UniProt Q15796 1-467)
3 | binds | binds | binds | no binding | binds | SMAD3 (from UniProt P84022 1-425)
4 | binds | binds | – | – | – | pSMAD3 (Ser423/425) (from UniProt P84022 1-425)

From article PMC5638819
